Experimental data published in PubChem BioAssay AID485294 (National Center for Advancing Translational Sciences (NCATS), 2010).
The whole screen tested about 370,000 compounds, of which about 150 (0.041%) were called active. This list was built around the results that the source calls inconclusive (neither active nor inactive); the mix of calls is not that of the screen. The call rests on the fitted dose curve; in most records, active means well fitted inhibition curve with a large enough effect; inconclusive means small, poorly fitted or top-dose-only effect; inactive means flat fitted curve, though single readings scatter. No potency is given beside an inconclusive call; the fits are too rough.

molecular target: Beta-lactamase (Escherichia coli (strain K12)) (UniProt P00811); assay: qHTS Inhibitors of AmpC Beta-Lactamase (assay with detergent); conditions: AmpC hydrolysis of nitrocefin, absorbance 480 nm, 0.01% Triton; series mostly up to 114 µM; further: nearly all actives have a fitted effect of over 25% in size
Sequence of UniProt P00811 (P00811 whole entry, looked up): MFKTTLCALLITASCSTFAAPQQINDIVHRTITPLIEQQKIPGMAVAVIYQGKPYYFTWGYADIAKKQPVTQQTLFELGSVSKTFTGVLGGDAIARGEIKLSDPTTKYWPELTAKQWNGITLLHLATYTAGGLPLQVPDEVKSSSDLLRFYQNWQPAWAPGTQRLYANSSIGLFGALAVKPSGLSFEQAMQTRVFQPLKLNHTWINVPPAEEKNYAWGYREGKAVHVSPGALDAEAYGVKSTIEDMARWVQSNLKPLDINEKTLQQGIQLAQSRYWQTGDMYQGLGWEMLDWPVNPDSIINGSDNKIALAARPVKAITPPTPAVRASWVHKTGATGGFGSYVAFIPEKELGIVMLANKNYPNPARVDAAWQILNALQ
Summary of the method: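 20 mM phosphate pH 7.0 + 0.01% (detergent screen) or 0.0001% Triton X-100; 5.3 nM AmpC reagent; cpd preinc 15 min RT; nitrocefin (800 uM stock) to start; A480 q20 s × 4 min; Activity was normalised to no-enzyme and no-compound control wells.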
Potency means the concentration at half of the fitted maximal effect; tags describe the fitted curve by direction and shape.

Row | SMILES | Potency
1 | CN(C)S(=O)(=O)c1ccc(C(=O)OCn2nnc3ccccc3c2=O)cc1 | inactive
2 | O=C(c1cc2ccccc2o1)N1CCN(C/C=C/c2ccccc2)CC1 | inconclusive [inhibitor, full curve, poor fit]
3 | COc1ccc2ccc(OCC(=O)Nc3cc(C)on3)cc2c1 | inactive
4 | O=C(OCc1ccccc1Cl)C1CC(=O)N(Cc2ccco2)C1 (stereo unspecified) | inconclusive [inhibitor, full curve, poor fit]
5 | Cc1ccc(CSCCNC(=O)c2ccc(N(C)S(=O)(=O)c3ccccc3)cc2)cc1 | inactive
6 | CN1CCSc2ccc(C(=O)NCc3ccccc3F)cc21 | inconclusive [inhibitor, partial curve]
7 | Cc1cc(C)n2nc(SCC(=O)c3ccc[nH]3)nc2n1 | inactive
8 | O=S(=O)(c1ccc(Br)cc1)c1nnn2c1nc(Nc1cccc(C(F)(F)F)c1)c1sccc12 | inactive
9 | Cc1ccc(NC(=O)CCc2nnc3ccc(N4CCC5(CC4)OCCO5)nn23)cc1F | inconclusive [inhibitor, single point]
10 | O=C(COc1coc(CN2CCc3ccccc32)cc1=O)Nc1ccc([N+](=O)[O-])cc1 | inconclusive [inhibitor, full curve, poor fit]
11 | CN(CC(=O)N1CCc2ccccc21)S(=O)(=O)c1ccc(Cl)cc1 | inconclusive [inhibitor, partial curve, poor fit]
12 | O=C(N/N=C/c1ccco1)c1cc(-c2ccccc2)n[nH]1 | inactive
13 | CCCS(=O)(=O)N1CCc2ccc(NC(=O)c3ccccc3Cl)cc2C1 | inconclusive [inhibitor, partial curve, poor fit]
14 | O=C(NC1(C(F)(F)F)Oc2ccccc2O1)N1CCC2(CC1)OCCO2 | inconclusive [inhibitor, single point]
15 | N#C/C(=C\c1ccc(Cl)s1)C(=O)N1CCN(c2ccccc2)CC1 | inconclusive [inhibitor, partial curve, poor fit]
16 | Cc1noc(/C=C/N(C)C)c1S(=O)(=O)N1CCN(c2ccc(F)cc2)CC1 | inactive
17 | S=C(Nc1cccnc1)Nc1cccc2cnccc12 | inconclusive [inhibitor, full curve, poor fit]
18 | Cc1ccc(NC(=O)NCCOCCn2c(=O)oc3ccccc32)cc1F | inactive
19 | COc1ccc(C(=O)NCC(=O)N2CCC(C)CC2)cc1OC | inconclusive [inhibitor, single point]
20 | COc1ccccc1-c1ccc(SCc2ccc([N+](=O)[O-])cc2)nn1 | inconclusive [inhibitor, full curve]
21 | COCCNC(=O)/C(C#N)=C/c1ccc(C)o1 | inactive
22 | CCc1nccn1S(=O)(=O)c1ccc(C)c(C)c1 | inconclusive [inhibitor, full curve]
23 | NC(=O)C1CCN(c2oc(/C=C/c3ccccc3)nc2S(=O)(=O)c2ccccc2)CC1 | inconclusive [inhibitor, partial curve, poor fit]

Row | SMILES | Potency
24 | Nc1ccccc1O | inactive
25 | CCCCOc1ccc(C(=O)OCC(=O)Nc2cc(C)on2)cc1 | inconclusive [inhibitor, full curve]
26 | CN(CC(=O)Nc1ccccc1Cl)C1CCS(=O)(=O)C1 (stereo unspecified) | inconclusive [inhibitor, full curve, poor fit]
27 | CC(C)CC(=O)Nc1cccc(C(C)O)c1 (stereo unspecified) | inconclusive [inhibitor, single point]
28 | CC1=CC(C)[C@H](/C=N/n2c(=O)[nH]c3c([nH]c4ccc(C)cc43)c2=O)C(C)C1 (stereo partly specified) | inactive
29 | COc1ccccc1C(CNc1ncccc1[N+](=O)[O-])N(C)C (stereo unspecified) | inactive
30 | CCN1CCN(CC(=O)Nc2ccc3c(c2)OCCO3)C(=O)C1=O | inconclusive [inhibitor, single point]
31 | Cc1cc(C(=O)N2CCN(S(C)(=O)=O)CC2)sc1-c1ccccc1 | inactive
32 | Cc1cccc(NC(=O)Cn2cnc(S(=O)(=O)N3CCCC3)c2)c1C | inconclusive [inhibitor, full curve, poor fit]
33 | Cc1c(NC(=O)c2ccc3c(c2)OCO3)cccc1-c1nc2ccccc2s1 | inconclusive [inhibitor, single point]
34 | COc1ccccc1CCNC(=O)Cc1c(C)c2cc3c(C(C)(C)C)coc3c(C)c2oc1=O | inactive
35 | CSCCC(NS(=O)(=O)c1ccc2c(c1)OCCO2)C(=O)N(C)Cc1ccccc1F (stereo unspecified) | inconclusive [inhibitor, full curve, poor fit]
36 | CCN1CCN(Cc2ccc(NC(=O)c3ccc(C)c(NC(=O)c4ccno4)c3)cc2C(F)(F)F)CC1 | inactive
37 | CCSC1=C(C#N)C(c2ccc(C)o2)CC(=O)N1 (stereo unspecified) | inactive
38 | CCn1c(Cn2nnc(-c3ccccc3)n2)nnc1SCc1ccc(Cl)c(Cl)c1 | inconclusive [inhibitor, full curve]
39 | CCOC(=O)C1CCCN(c2c(NCCCN3CCCC(C)C3)c(=O)c2=O)C1 (stereo unspecified) | inconclusive [inhibitor, full curve, poor fit]
40 | CN1CSC2=C(C#N)C(c3cccc(OCc4ccccc4)c3)CC(=O)N2C1 (stereo unspecified) | inconclusive [inhibitor, full curve, poor fit]
41 | CCc1c(C)c(C#N)c2nc3ccccc3n2c1Cl | inactive
42 | C=CCOc1ccccc1CN1CCC(Cc2ccccc2)CC1 | inconclusive [inhibitor, partial curve]
43 | Cc1ccc(-c2nn3c(C)nnc3c3ccccc23)cc1S(=O)(=O)N(C)CCO | inconclusive [inhibitor, full curve, poor fit]
44 | COc1cc(C(=O)NCCCN2CCCC2=O)ccc1OCc1ccc(Cl)cc1Cl | inactive
45 | O=C(NNc1cccc(Cl)c1)c1cccnc1Cl | inconclusive [inhibitor, full curve, poor fit]
46 | O=C(CSc1ccc2c(c1)OCCO2)Nc1ncccc1O | inactive
